Assay results published in article PMC13010378.
These are yes or no findings as the source states them, for the method shown. In cells and extracts the contact can be indirect. Some binding calls cover weakened binding; strength is not graded here. For some of these results: Where a sequence is shown, tags or fusion partners need not be part of it.

Chains of the proteins cited; added tags and fusions are not shown.
UniProt P51863: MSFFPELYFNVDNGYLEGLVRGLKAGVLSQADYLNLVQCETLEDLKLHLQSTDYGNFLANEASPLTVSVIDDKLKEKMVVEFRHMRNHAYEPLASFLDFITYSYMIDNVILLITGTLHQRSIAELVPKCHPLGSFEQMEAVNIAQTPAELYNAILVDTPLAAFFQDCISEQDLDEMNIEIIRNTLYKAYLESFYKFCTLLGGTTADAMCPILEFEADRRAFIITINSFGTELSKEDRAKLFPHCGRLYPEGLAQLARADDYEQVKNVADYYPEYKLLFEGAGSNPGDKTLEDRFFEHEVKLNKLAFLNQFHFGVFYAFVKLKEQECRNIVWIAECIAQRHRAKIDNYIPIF
UniProt P38606: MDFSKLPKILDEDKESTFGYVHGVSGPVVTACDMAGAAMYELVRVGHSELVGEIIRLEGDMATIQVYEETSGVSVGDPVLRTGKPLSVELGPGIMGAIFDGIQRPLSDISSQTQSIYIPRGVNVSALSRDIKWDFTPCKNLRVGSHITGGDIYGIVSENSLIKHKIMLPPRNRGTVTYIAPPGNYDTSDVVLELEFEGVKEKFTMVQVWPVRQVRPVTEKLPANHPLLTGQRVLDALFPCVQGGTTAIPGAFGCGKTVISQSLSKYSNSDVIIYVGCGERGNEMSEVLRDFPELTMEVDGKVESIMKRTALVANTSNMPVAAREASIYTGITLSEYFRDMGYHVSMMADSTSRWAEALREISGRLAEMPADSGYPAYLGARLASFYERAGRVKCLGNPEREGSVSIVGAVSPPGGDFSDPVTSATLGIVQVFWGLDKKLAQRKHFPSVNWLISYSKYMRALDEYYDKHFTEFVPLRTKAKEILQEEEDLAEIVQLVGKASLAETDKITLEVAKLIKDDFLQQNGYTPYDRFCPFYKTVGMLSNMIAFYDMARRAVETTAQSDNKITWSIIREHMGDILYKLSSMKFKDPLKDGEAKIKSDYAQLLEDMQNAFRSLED
UniProt P50516: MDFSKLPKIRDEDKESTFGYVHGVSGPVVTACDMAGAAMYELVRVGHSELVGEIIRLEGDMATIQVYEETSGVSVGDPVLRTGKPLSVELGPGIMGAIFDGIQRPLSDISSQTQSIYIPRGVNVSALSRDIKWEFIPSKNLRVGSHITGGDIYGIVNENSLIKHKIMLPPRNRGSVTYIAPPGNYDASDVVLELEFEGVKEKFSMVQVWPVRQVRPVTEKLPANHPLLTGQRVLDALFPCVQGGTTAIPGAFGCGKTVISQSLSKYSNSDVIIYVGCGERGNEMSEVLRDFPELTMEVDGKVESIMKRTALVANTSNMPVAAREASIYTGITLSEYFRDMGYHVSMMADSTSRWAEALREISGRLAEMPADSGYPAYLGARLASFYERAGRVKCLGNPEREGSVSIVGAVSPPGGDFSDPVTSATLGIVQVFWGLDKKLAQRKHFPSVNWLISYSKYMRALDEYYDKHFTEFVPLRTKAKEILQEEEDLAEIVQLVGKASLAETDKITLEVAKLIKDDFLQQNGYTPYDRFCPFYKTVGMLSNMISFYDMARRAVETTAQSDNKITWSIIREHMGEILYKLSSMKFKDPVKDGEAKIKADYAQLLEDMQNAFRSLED
UniProt P61421: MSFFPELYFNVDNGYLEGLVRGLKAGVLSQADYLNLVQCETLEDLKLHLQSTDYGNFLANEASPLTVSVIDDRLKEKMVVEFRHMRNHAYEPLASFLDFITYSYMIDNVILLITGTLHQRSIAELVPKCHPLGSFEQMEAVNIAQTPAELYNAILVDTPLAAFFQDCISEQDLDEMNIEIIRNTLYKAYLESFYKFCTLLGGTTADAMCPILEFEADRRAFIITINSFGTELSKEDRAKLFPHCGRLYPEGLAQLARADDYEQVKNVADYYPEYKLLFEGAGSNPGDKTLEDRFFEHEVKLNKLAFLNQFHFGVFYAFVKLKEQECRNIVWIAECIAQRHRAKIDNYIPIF
UniProt Q9UI12: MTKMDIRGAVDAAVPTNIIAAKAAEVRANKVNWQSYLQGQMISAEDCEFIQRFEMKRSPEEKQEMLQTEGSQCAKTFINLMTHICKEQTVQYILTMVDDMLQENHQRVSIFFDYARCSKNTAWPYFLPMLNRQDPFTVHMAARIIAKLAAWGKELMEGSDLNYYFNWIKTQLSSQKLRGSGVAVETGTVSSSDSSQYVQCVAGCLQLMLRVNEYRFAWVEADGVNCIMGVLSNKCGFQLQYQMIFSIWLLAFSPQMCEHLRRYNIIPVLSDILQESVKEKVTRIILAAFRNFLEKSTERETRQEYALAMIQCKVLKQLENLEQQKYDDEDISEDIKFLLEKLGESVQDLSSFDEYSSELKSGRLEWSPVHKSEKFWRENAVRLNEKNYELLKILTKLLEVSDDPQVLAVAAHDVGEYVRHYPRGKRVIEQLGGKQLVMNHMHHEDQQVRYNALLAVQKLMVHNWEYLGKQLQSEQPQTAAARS
UniProt P21281: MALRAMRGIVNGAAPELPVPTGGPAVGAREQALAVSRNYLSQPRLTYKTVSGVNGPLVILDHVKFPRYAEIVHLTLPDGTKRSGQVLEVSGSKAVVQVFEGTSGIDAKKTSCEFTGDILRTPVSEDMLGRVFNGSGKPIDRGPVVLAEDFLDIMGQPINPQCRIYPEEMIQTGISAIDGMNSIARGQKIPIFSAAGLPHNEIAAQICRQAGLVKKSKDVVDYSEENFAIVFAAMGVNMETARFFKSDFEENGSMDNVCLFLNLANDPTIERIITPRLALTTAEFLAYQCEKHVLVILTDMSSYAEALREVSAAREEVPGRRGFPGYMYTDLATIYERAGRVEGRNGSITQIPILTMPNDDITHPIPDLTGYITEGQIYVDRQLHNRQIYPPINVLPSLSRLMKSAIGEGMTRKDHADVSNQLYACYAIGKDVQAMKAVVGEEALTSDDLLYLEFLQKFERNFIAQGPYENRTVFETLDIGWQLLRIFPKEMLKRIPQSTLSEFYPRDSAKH
UniProt O75348: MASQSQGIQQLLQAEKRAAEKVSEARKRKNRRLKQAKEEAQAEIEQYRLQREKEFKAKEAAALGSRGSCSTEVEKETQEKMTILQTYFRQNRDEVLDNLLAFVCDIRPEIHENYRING

Tests used:
[1] = biological target: T1, endogenous TCF25 of mouse dermal fibroblasts (mouse (endogenous in MDF)) (UniProt Q8R3L2); test: co-IP; endogenous proteins; MDF or HeLa cells starved without glucose at the indicated time points; lysates precipitated with TCF25 antibody (IP:TCF25), immunoblot
T1 sequence: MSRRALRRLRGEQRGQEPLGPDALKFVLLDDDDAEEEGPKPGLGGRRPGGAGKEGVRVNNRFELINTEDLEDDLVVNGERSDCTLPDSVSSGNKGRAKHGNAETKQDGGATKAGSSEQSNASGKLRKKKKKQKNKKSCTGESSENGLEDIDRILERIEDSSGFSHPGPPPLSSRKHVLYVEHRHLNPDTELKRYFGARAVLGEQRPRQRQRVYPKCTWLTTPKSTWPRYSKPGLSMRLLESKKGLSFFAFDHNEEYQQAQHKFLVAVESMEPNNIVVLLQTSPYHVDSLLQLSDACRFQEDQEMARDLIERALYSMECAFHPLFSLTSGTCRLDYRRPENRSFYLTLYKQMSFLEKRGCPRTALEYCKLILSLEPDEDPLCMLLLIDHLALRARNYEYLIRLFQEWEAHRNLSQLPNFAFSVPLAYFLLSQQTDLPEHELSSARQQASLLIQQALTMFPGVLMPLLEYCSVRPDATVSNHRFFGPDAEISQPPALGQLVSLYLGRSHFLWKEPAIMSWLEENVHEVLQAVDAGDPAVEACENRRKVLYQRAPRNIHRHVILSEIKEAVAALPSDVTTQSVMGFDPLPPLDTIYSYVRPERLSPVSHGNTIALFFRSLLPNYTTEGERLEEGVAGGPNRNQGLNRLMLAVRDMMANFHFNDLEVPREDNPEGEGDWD

[2] = biological target: endogenous ATP6V0D1 of mouse dermal fibroblasts (mouse (endogenous in MDF)) (UniProt P51863); test: proximity ligation; Duolink PLA with antibodies against ATP6V1A and ATP6V0D1 in fixed WT, TCF25-/- and TCF25 reconstituted MDFs starved without glucose at the indicated time points
[3] = biological target: HA-tagged V-ATPase V1 subunit A (ATP6V1A) (human) (UniProt P38606); test: co-IP; HEK293T transfected with HA-ATP6V1A with or without FLAG-TCF25, starved without glucose at the indicated time points; IP:HA, immunoblot for endogenous ATP6V0D1
[4] = biological target: T2, FLAG-tagged full-length TCF25 (Transcriptional Factor 25) (not stated (human or mouse cDNA cloned)) (UniProt Q9BQ70); test: co-IP; HEK293T co-transfected with FLAG-tagged TCF25 (or its domains) and a tagged V-ATPase subunit, starved without glucose at the indicated time points; lysates in IP buffer precipitated with FLAG antibody and protein A/G magnetic beads at 4°C overnight, immunoblot
T2 sequence: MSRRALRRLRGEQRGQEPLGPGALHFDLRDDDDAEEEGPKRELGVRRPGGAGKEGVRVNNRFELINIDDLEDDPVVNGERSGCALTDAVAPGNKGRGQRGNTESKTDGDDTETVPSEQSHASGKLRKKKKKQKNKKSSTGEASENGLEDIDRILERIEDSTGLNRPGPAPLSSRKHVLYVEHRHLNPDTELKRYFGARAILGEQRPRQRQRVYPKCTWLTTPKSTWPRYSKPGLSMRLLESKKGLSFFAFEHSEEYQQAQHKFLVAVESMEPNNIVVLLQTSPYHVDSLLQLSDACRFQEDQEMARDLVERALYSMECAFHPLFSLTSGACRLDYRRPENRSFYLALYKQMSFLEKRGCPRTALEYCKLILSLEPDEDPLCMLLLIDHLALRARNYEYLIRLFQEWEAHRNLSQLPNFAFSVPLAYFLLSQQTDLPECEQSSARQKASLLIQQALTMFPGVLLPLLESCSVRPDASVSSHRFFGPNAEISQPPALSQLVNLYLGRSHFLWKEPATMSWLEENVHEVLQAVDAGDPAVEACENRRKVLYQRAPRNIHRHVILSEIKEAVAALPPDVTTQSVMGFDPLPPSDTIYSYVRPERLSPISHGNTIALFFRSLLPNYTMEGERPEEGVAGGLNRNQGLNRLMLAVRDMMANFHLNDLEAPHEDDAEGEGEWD

| Substance | binding [4] | also measured |
| --- | --- | --- |
| endogenous ATP6V1A of mouse dermal fibroblasts (from UniProt P50516 1-617) |  | binding [1]: binds; binding [2]: binds |
| endogenous ATP6V0D1 of HEK293T cells (from UniProt P61421 1-351) |  | binding [3]: binds |
| Myc-tagged V-ATPase V0 subunit D1 (ATP6V0D1) (from UniProt P61421 1-351) | no binding |  |
| HA-tagged ATP6V1H (from UniProt Q9UI12 1-483) | no binding |  |

Further lines, with some results ahead:

| binding [4] | Substance | also measured |
| --- | --- | --- |
| no binding | HA-tagged ATP6V1B2 (from UniProt P21281 1-511) |  |
| no binding | HA-tagged ATP6V1G1 (from UniProt O75348 1-118) |  |
